In all, about 390,000 compounds went through this assay and about 17,000 (4.4%) were called active. Inconclusive results, whose numbers are uncertain, are shown with a selection of clear calls. The call rests on the fitted dose curve; in most records, active means well fitted inhibition curve with a large enough effect; inconclusive means small, poorly fitted or top-dose-only effect; inactive means no such curve, though single readings can be large or run the other way. Potencies beside an inconclusive call are fits to weak or partial responses and may not hold up.
What follows are compounds tested against Lysine-specific demethylase 4A (Homo sapiens) (UniProt O75164) (assay: qHTS Assay for Inhibitors of JMJD2A-Tudor Domain). Settings: AlphaScreen JMJD2A-Tudor / H3K4me3 peptide binding; activity change, negative = inhibition: at 114 µM (top of the series).
Sequence of UniProt O75164 (O75164 whole entry, looked up, the tested form may be a part): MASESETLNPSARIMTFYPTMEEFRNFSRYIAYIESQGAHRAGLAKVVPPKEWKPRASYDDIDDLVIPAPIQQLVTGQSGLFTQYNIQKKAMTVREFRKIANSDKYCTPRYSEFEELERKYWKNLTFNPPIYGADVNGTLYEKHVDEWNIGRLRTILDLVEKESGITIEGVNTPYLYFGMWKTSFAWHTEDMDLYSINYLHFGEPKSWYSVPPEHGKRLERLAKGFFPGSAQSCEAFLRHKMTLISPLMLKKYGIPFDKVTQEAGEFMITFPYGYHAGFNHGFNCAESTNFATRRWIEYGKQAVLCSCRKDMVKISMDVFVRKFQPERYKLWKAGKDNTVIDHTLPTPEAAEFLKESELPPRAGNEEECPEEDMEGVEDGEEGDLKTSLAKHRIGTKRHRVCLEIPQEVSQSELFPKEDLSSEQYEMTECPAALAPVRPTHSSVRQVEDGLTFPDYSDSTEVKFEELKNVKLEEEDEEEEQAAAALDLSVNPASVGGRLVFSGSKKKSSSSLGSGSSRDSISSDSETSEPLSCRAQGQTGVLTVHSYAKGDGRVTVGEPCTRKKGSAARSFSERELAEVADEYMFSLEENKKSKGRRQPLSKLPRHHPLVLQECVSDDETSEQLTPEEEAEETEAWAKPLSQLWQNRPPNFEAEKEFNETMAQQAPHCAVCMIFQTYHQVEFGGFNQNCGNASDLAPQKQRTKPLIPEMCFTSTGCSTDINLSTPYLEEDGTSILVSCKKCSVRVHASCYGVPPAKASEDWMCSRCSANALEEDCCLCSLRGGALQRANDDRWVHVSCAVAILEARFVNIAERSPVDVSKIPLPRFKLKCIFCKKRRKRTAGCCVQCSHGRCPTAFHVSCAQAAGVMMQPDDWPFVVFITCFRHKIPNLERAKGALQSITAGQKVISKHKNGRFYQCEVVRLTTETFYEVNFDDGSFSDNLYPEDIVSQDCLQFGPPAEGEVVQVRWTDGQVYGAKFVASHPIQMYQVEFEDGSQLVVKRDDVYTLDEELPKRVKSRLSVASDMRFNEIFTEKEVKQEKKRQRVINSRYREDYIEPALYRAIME
`COCCNC(=O)/C(C#N)=C/c1c(N2CCN(c3cccc(Cl)c3)CC2)nc2c(C)cccn2c1=O` was tested, and the Potency was inconclusive: 11.2 µM [inhibitor, full curve]. For `COc1ccc(Nc2nc(-c3sc(C)nc3C)cs2)cc1`, the Potency was inconclusive: 56.2 µM [inhibitor, partial curve]. In the case of `Cc1nn(CCCC(=O)Nc2cc(C(F)(F)F)ccc2Cl)c(=O)c2c1sc1ccccc12`, the Potency is reported as “inactive”. For `CCOc1ccccc1N1CCN(Cc2ccco2)CC1`, the Potency was active: 3.55 µM. `C[C@H]1CN([C@@H](C)CO)C(=O)Cc2cc(NC(=O)CCC(F)(F)F)ccc2O[C@H]1CN(C)S(=O)(=O)c1ccc(F)cc1` was tested, and the Potency was “inactive”. With `Cc1cccc(-n2cc(C(=O)O)c(=O)cc2C)c1` the Potency was active: 44.7 µM. With `CCCn1c(=O)[nH]c(=O)c2c(C(=O)OCC)cc(-c3cccs3)nc21` the Potency was inconclusive: 17.8 µM [inhibitor, full curve]. For `CC1CCN(S(=O)(=O)c2ccc(NC(=O)CCN3C(=O)c4ccccc4C3=O)cc2)CC1`, the Potency was “inactive”. With `COc1ccc(CN2CCN(c3ccccc3OC)CC2)cc1OC` the Potency was active: 22.4 µM. With `Oc1ccc(-c2[nH]ncc2-c2ccc(Br)cc2)c(O)c1` the Potency was “inactive”. In the case of `COc1ccc2c3c([nH]c2c1)C(C)N(CCC(=O)NN)CC3` (centres undefined), the Potency is reported as inconclusive: 50.1 µM [inhibitor, partial curve]. `CC(C)CCn1c(CN2CCN(c3cccc(Cl)c3)CC2)nc2c1c(=O)n(C)c(=O)n2C` was tested, and the Potency was inconclusive: 31.6 µM [inhibitor, partial curve]. In the case of `c1ccc2c(c1)Nc1nccnc1S2`, the Potency is reported as active: 44.7 µM. For `Cc1ccc(S(=O)(=O)c2cnc(SCC(=O)Nc3ccc4c(c3)OCCO4)[nH]c2=O)cc1C`, the Potency was inconclusive: 79.4 µM [inhibitor, partial curve]. In the case of `Cc1nn(Cc2ccccc2)c2c1C(c1cccc(Cl)c1)C(C#N)=C(N)O2` (centres undefined), the Potency is reported as inconclusive: 79.4 µM [inhibitor, partial curve]. With `COc1cccc(NC(=O)c2ccc(CN3CCN(c4ccccc4)CC3)cc2)c1` the Potency was inconclusive: 5.01 µM [inhibitor, full curve, poor fit]. `CSc1n[nH]c(=S)n1N` was tested, and the Potency was active: 17.8 µM. `CC1CCCCN1C(=O)c1ccc2c(c1)N(Cc1ccc(F)cc1)C(=O)c1ccccc1S2(=O)=O` (centres undefined) was tested, and the Potency was “inactive”. For `CC(/C=C1\SC(=S)N(C(C(=O)O)c2ccccc2)C1=O)=C\c1ccccc1` (centres undefined), the Potency was inconclusive: 63.1 µM [inhibitor, partial curve, poor fit]. For `NC(N)=Nc1nc(CSCC/C(N)=N/S(N)(=O)=O)cs1`, the Potency was active: 22.4 µM. In the case of `O=C(CSc1ncc(-c2ccccc2)[nH]1)Nc1cccc(Br)c1`, the Potency is reported as inconclusive: 50.1 µM [inhibitor, partial curve]. With `CC(=O)c1ccc(NCC2COc3ccccc3O2)c([N+](=O)[O-])c1` (centres undefined) the Potency was inconclusive: 44.7 µM [inhibitor, partial curve]. In the case of `CC(=O)N(c1ccccc1)C(C(=O)c1ccccc1)c1ccccc1` (centres undefined), the Potency is reported as “inactive”. With `CCOc1ccc(-n2c(N)c(C(=O)NCC3CCCO3)sc2=S)cc1` (centres undefined) the Potency was inconclusive: 79.4 µM [inhibitor, single point]. `O=C(N/N=C1\C(=O)c2cccc3cccc1c23)c1ccc(O)cc1` was tested, and the Potency was “inactive”. In the case of `CC1=CC2=C(OC1N(C)C)c1cccc3cccc(c13)C2=O` (centres undefined), the Potency is reported as inconclusive: 56.2 µM [inhibitor, partial curve]. In the case of `CCOC(=O)N1CCN(S(=O)(=O)c2ccc(C(=O)N(CCCN(C)C)c3nc4c(C)c(C)ccc4s3)cc2)CC1`, the activity change, negative = inhibition is reported as inconclusive: -48.3% [inhibitor]. With `O=C(CSc1ccc(Cl)cc1Cl)N1CCC(c2nc3ccccc3s2)CC1` the Potency was “inactive”. For `COc1ccc([C@H]2CC(=O)C=C(c3cccc(Br)c3)C2)cc1OC`, the Potency was inconclusive: 50.1 µM [inhibitor, partial curve, poor fit]. In the case of `CN1CCN(C(=O)C2CCCN(S(=O)(=O)c3ccc(F)cc3)C2)CC1` (centres undefined), the Potency is reported as active: 5.62 µM. `COc1ccccc1NC(=O)C1=C(C)Nc2nc3ccccc3n2C1c1ccccc1Cl` (centres undefined) was tested, and the Potency was “inactive”. With `CC(=O)N1CCc2c(sc3c2c(=O)n(-c2ccccc2Cl)c(=O)n3Cc2cccc(C)c2)C1` the Potency was “inactive”. With `CC(=O)c1cccc(NC(=O)CCc2c(C)nc3nc(CN)nn3c2C)c1` the Potency was inconclusive: 100 µM [inhibitor, partial curve]. With `O=S(=O)(c1cc(Cl)ccc1Cl)N1CCN2CCCC2C1` (centres undefined) the Potency was “inactive”. In the case of `CCOC(=O)C1=CN(Cc2ccco2)S(=O)(=O)N(CC)C1c1ccccc1` (centres undefined), the Potency is reported as “inactive”. With `Cc1cc(C(=O)COC(=O)c2ccc(Br)o2)c(C)n1C` the Potency was inconclusive: 56.2 µM [inhibitor, partial curve, poor fit]. With `COc1ccc(-c2nnc(NC(=O)c3ccc(S(=O)(=O)N(C)CC4CCCO4)cc3)o2)c(OC)c1` (centres undefined) the Potency was inconclusive: 89.1 µM [inhibitor, partial curve]. With `CCn1c(Cc2ccccc2)nnc1SCC(=O)c1c(N)n(C2CC2)c(=O)[nH]c1=O` the Potency was “inactive”. `COc1ccc(OC)c(-n2c(=S)[nH]c3c(sc(=S)n3-c3ccccc3)c2=O)c1` was tested, and the Potency was inconclusive: 56.2 µM [inhibitor, partial curve]. For `O=C(c1ccco1)N1CCN(c2nc(C3CC3)nc3sc4c(c23)CCCC4)CC1`, the Potency was inconclusive: 44.7 µM [inhibitor, partial curve]. For `CCOC(=O)c1cc(-c2ccccc2)n(CCC(=O)NCCc2ccccc2)c1C`, the Potency was inconclusive: 50.1 µM [inhibitor, partial curve]. `CCN(CC)S(=O)(=O)c1ccc2c(c1)N(CC(=O)NCCCN1CCN(c3ccc(OC)cc3)CC1)C(=O)CO2` was tested, and the Potency was “inactive”. In the case of `COc1ccccc1CNC(=O)c1cn(C)c(=O)c2cc(OC)c(OC)cc12`, the Potency is reported as active: 12.6 µM. `Cc1nn(-c2ccccn2)c2nc(-c3cccs3)cc(C(=O)N3CCOCC3)c12` was tested, and the Potency was inconclusive: 39.8 µM [inhibitor, single point]. `S=C(NCc1ccco1)NCc1ccco1` was tested, and the Potency was active: 56.2 µM. For `CCc1ccc(C(=O)c2cn(CC(=O)Nc3cc(OC)ccc3OC)c3ccc(Cl)cc3c2=O)cc1`, the Potency was “inactive”. In the case of `CC1=CC2=NC(=O)/C(=C\c3cc(C)n(-c4ccccc4F)c3C)C(=N)N2O1`, the Potency is reported as “inactive”. `COc1ccc(C(=O)COC(=O)c2ccccc2NS(=O)(=O)c2ccc(O)c([N+](=O)[O-])c2)cc1` was tested, and the Potency was inconclusive: 56.2 µM [inhibitor, partial curve]. `CCOC(=O)c1cnc2ccc(OC)cc2c1Nc1ccc(OCc2ccccc2Cl)cc1` was tested, and the Potency was “inactive”. With `CC(OC(=O)c1ccc(-n2cnnn2)cc1)C(=O)N(C)c1ccccc1` (centres undefined) the Potency was “inactive”. In the case of `CNC(=O)c1[nH]cnc1C(=O)Nc1ccccn1`, the activity change, negative = inhibition is reported as inconclusive: -55.8% [inhibitor]. With `COc1ccc(-c2nc3sc(CCNC(=O)Cc4ccccc4)c(C)n3n2)cc1` the Potency was “inactive”. For `O=C1N/C(=N\N=C\c2cccs2)SC1Cc1ccc(Cl)c(Cl)c1` (centres undefined), the Potency was inconclusive: 63.1 µM [inhibitor, partial curve, poor fit]. For `CN1CCN(c2ccc(NC(=O)c3ccc(-c4ccc(Br)cc4)o3)cc2)CC1`, the Potency was active: 35.5 µM. `CO/N=C(\N)c1nonc1N` was tested, and the Potency was “inactive”. `CN(C)CCCN(C(=O)c1ccc2c(c1)OCCO2)c1nc2cc3c(cc2s1)OCO3` was tested, and the Potency was “inactive”. `CCOc1cc(-c2cc(N)n[nH]2)cc(OCC)c1OCC` was tested, and the Potency was “inactive”. With `CC(=O)Nc1cccc(C(=O)OC(C(=O)c2ccc(C)cc2)c2ccccc2)c1` (centres undefined) the Potency was inconclusive: 31.6 µM [inhibitor, full curve, poor fit]. For `COc1ccc(-n2cc(-c3ccc4c(c3)OCO4)n(CC(=O)Nc3cc(Cl)ccc3C)c2=O)cc1`, the Potency was “inactive”. In the case of `CC1CCN(c2oc(-c3cccs3)nc2S(=O)(=O)c2ccccc2)CC1`, the Potency is reported as inconclusive: 39.8 µM [inhibitor, partial curve]. `CC(=O)N1CCc2cc(Br)cc(S(=O)(=O)N3CCN(c4ccccn4)CC3)c21` was tested, and the Potency was active: 79.4 µM. `O=C(Cc1cnc2ncnn2c1)N1CCc2c([nH]c3ccccc23)C1c1ccccn1` (centres undefined) was tested, and the Potency was inconclusive: 31.6 µM [inhibitor, partial curve]. For `NS(=O)(=O)c1ccc(CCNCC#Cc2ccccc2)cc1`, the Potency was inconclusive: 3.98 µM [inhibitor, single point]. With `Oc1ccc(Cl)cc1C1C=C(c2ccc3c(c2)OCO3)NC(c2cc(Br)ccc2F)N1` (centres undefined) the Potency was inconclusive: 89.1 µM [inhibitor, partial curve]. `O=C(CSc1cccs1)Nc1ccc(Cl)cc1` was tested, and the Potency was “inactive”. For `O=c1[nH]cnc2ncc(-c3ccc(O)cc3)nc12`, the Potency was active: 79.4 µM. With `CSc1ccccc1NC(=O)CN(C)CC(=O)c1c(C)[nH]c2ccccc12` the Potency was “inactive”. For `Oc1ccc2ccccc2c1CN1CCOCC1`, the Potency was inconclusive: 79.4 µM [inhibitor, partial curve]. In the case of `Cc1cccc(N2CCN(C(=O)c3cccc(N4CCCC4=O)c3)C(C)C2)c1` (centres undefined), the Potency is reported as inconclusive: 44.7 µM [inhibitor, partial curve]. In the case of `CCCCC(=O)NNC(=S)NC(=O)c1ccc([N+](=O)[O-])cc1`, the Potency is reported as active: 31.6 µM. In the case of `Cc1nc(N)sc1N=Nc1ccc(Br)cc1`, the Potency is reported as inconclusive: 31.6 µM [inhibitor, partial curve]. In the case of `CCOc1ccc(-c2ncnn2-c2sc3c(c2C#N)CCCCC3)cc1`, the Potency is reported as inconclusive: 20 µM [inhibitor, full curve]. `O=C(c1ccc(F)cc1)N1CCCC(N2CCN(Cc3ccc4c(c3)OCO4)CC2)C1` (centres undefined) was tested, and the Potency was “inactive”. For `Cc1ccc(C(=O)O)cc1N=Cc1cc(Br)cc(Br)c1O`, the Potency was inconclusive: 70.8 µM [inhibitor, single point].

Source: PubChem BioAssay AID504339 (National Center for Advancing Translational Sciences (NCATS), 2011)
Further: nearly all actives have a fitted effect of over 50% in size.
On the % scale 0 is the no-effect control and ±100 the full control effect; potency means the concentration at half of the fitted maximal effect; tags describe the fitted curve by direction and shape.
